Out of some 48,000 compounds screened, about 550 (1.1%) were called active. Inconclusive results (about 4%) are left out. No stated cut-off is given here; in the data, active means potency below about 15 µM; inconclusive means mostly about 16 µM to 33 µM; inactive means weaker than that. This is one part of the list.
target: Lysosomal acid glucosylceramidase (Homo sapiens) (UniProt P04062); test: Glucocerebrosidase; conditions: purified enzyme, resorufin glucoside fluorescence (screen aimed at inhibitors), 20 min;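 further: the screen sought inhibitors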
Chain of UniProt P04062 (P04062 whole entry, looked up): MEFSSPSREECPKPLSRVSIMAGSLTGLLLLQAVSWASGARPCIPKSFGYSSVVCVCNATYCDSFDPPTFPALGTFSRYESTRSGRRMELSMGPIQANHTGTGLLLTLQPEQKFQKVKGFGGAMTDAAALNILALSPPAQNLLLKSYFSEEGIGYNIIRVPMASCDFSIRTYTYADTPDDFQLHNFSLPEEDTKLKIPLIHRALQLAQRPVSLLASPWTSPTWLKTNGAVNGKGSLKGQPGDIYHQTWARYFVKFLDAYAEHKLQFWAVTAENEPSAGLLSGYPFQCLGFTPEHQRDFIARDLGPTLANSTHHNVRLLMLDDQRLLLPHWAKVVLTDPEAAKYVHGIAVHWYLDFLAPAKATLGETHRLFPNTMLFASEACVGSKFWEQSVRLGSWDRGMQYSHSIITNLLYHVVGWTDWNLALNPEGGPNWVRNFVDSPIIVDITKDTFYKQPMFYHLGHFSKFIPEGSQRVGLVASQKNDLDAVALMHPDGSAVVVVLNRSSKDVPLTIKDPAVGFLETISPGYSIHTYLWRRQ
How it was run: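 Compounds titrated against 0.2 nM normal enzyme, 30 uM resorufin beta-D-glucopyranoside substrate, citrate/phosphate buffer with taurocholate and tween-20, pH 5.9. Reaction ran 20 min at room temperature; fluorescence (Ex 548/Em 600) gave AC50.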
Potency means the concentration at half of the fitted maximal effect.

Potency, inactive:
O=C(Oc1ccc(OC(=O)c2ccncc2)cc1)c1ccncc1 > 76.9 µM, O=C(O)C1CCCN1S(=O)(=O)c1ccc(Br)s1 (stereo unspecified) (tested in a mixture with another compound) > 76.9 µM, CCOC(=O)c1[nH]c(C)c(CCC(=O)OC)c1C > 76.9 µM, CCc1nnc(NC(=O)CCC(=O)N2CCN(Cc3ccccc3)CC2)s1 > 76.9 µM, CC(C)(C)C1=Nn2c(nnc2-c2n[nH]c3c2CCC3)SC1 > 76.9 µM, O=C1CC(SCc2nc3ccccc3[nH]2)C(=O)N1c1cccc(F)c1 (stereo unspecified) > 76.9 µM, C=C(C)CSc1nc(N)c2c(C)c(C)sc2n1 > 76.9 µM, CC(=O)c1ccc(N2C(=NC(=O)C(C)C)SC3CS(=O)(=O)CC32)cc1 (stereo unspecified) > 76.9 µM, O=C1NC(=O)C2C3c4ccccc4C(c4ccccc43)C12 (stereo unspecified) > 76.9 µM, CCOC(=O)c1ccc2nc(C(F)(F)F)[nH]c(=O)c2c1 > 76.9 µM, CC(C(=O)Nc1ccc2c(c1)OCO2)N(c1ccc(Cl)cc1)S(C)(=O)=O (stereo unspecified) > 76.9 µM, c1ccc(C2C3=C(Nc4ncnn42)c2ccccc2CCC3)cc1 (stereo unspecified) > 76.9 µM, CCOC(=O)NC(=O)CSc1nnnn1-c1ccccc1 > 76.9 µM, COc1ccc(S(=O)(=O)NCCC(=O)NCc2ccc(F)cc2)cc1 > 76.9 µM, CCS(=O)(=O)N1CCCC(C(=O)N2CCc3ccccc3C2)C1 (stereo unspecified) > 76.9 µM, O=C(NCc1ccc(N2CCCC2=O)cc1)c1cn(Cc2ccccc2)nn1 > 76.9 µM, CSCCC(NC(=O)c1cc(C(C)(C)C)oc1C)C(=O)O (stereo unspecified) > 76.9 µM, CCOCCCn1c(=NC(C)=O)c(C(=O)OCC)cc2c(=O)n3ccccc3nc21 > 76.9 µM, N#Cc1c2n(c3c(=O)n(Cc4ccccc4)cnc13)CCCC2 > 76.9 µM, CCOC(=O)N1CCN(S(=O)(=O)c2ccc3[nH]cc(C(=O)O)c(=O)c3c2)CC1 > 76.9 µM, CCn1c(=O)cc(SCC(=O)Nc2ccc3c(c2)OCCO3)c2ccccc21 > 15.4 µM, CCOC(=O)C1=C(C)NC(C)=C(C(=O)OCC)C1C(=O)OC1CCOC1=O (stereo unspecified) > 76.9 µM, Cc1ccc2[nH]c(=O)c(N3CCOCC3)c(-c3ccccc3)c2c1 > 76.9 µM, CCc1nnc2n1N=C(c1ccc(-c3cc(Cl)ccc3Cl)o1)CS2 > 76.9 µM, COCCN1C(=O)c2oc3c(C)cc(C)cc3c(=O)c2C1c1cccc(O)c1 (stereo unspecified) > 76.9 µM, CC1=C(C(=O)OC(C)C)C(/C=C/c2ccccc2)NC(=O)N1 (stereo unspecified) > 76.9 µM, Cc1c(C(=O)OC(C)CCN(C)C)oc2ccccc12 (stereo unspecified) > 76.9 µM, CCOC(=O)N1CCC(n2c(SCC(=O)Nc3nccs3)nc3ccsc3c2=O)CC1 > 76.9 µM, O=c1cc(O)c2c(=O)n3c4c(cccc4c2o1)CCC3 > 76.9 µM, CSc1nc(-c2ccccc2O)nc(-c2ccccc2O)n1 > 76.9 µM, COc1ccc(-c2noc(-c3ccccc3C(=O)NCc3ccco3)n2)cc1OC > 76.9 µM, CN(C)c1ccc(-c2nnn(CC(=O)N3c4ccccc4CCc4ccccc43)n2)cc1 > 76.9 µM, c1ccc(Cn2nnnc2C(c2cccs2)N2CCc3ccccc3C2)cc1 (stereo unspecified) > 76.9 µM, Cc1noc(C)c1CSc1nnc(-c2ccccc2F)n1CCc1ccccc1 > 76.9 µM, Cc1ccc(S(=O)(=O)N2CCN(C(=O)C3Cc4ccccc4CN3C(=O)c3ccco3)CC2)cc1 (stereo unspecified) > 76.9 µM, O=C(Nc1ccccc1)N1CCCN(Cc2ccccc2F)C1, CCn1c(SCC(=O)Nc2cc(C)ccc2C)nnc1-c1cnccn1 > 76.9 µM, COC(=O)c1ccc(C(=O)OC)c(NC(=O)CN2CCN(c3ccccc3)CC2)c1 > 76.9 µM, COC(=O)c1sc(NC(=O)c2cnccn2)c(C(=O)OC)c1C > 76.9 µM, Cc1cc(C(=O)NCCCN2CCCC2=O)cs1 > 76.9 µM, CC(C)NC(=O)c1ccc2c(c1)nnn2C > 76.9 µM, N#Cc1cc2c(nc1SCC(=O)NCc1ccc3c(c1)OCO3)CCCCC2 > 76.9 µM, N#C/C(=C\c1ccc(O)c(O)c1)S(=O)(=O)c1ccccc1, COc1ccc(CC(CC(=O)O)C(=O)Nc2ccccc2)cc1 (stereo unspecified) > 76.9 µM, COc1cc(CC(=O)OCC(=O)Nc2ccc(S(=O)(=O)N3CCCC3)cc2)cc(OC)c1OC > 76.9 µM, CC1CCN(S(=O)(=O)c2ccc3[nH]c(=O)cc(C(=O)O)c3c2)CC1 > 76.9 µM, O=C1CC(N2CCN(c3nc4ccccc4s3)CC2)C(=O)N1Cc1cccs1 (stereo unspecified) > 76.9 µM, CCCCn1nc(C(=O)O)ccc1=O > 76.9 µM, COc1ccccc1NC(=O)c1ccc(Br)o1 > 76.9 µM, CCCCCc1c(C)nc(Nc2ccccc2)[nH]c1=O > 76.9 µM, OCCCCNc1cccc2ccccc12 > 76.9 µM, O=C(NCCNCCO)c1c(O)c2cccc3c2n(c1=O)CCC3 > 76.9 µM, CCCOC(=O)C1C2C=C[C@]3(CN(CCc4ccccc4)C(=O)[C@H]13)O2 (stereo partly specified) > 76.9 µM, CN(C)CCC(=O)c1ccc(Cl)cc1 > 76.9 µM, c1ccc(-c2nnc3sc(CN4CCc5ccccc54)cn23)cc1 > 76.9 µM, CCOC(=O)c1sc(N)c(C#N)c1CSc1nnc(C2CCCCC2)n1N > 76.9 µM, CCNC(=O)CSc1nc2cc(OC)c(OC)cc2c(=O)n1CCC1=CCCCC1 > 76.9 µM, CC(C)(C)c1cc(C(=S)N2CCN(CCO)CC2)cc(C(C)(C)C)c1O, Cc1ccc(S(=O)(=O)N2CCCC(C(=O)NCc3ccccn3)C2)cc1 (stereo unspecified) > 76.9 µM, O=C(Nc1ccc(Br)c(Cl)c1)C1CC1 > 76.9 µM, Cc1ccc(OC(=O)c2ccc(C)c(C)c2)cn1 > 76.9 µM, CSc1nc(N)nc(SCC(=O)c2ccccc2)c1C#N > 76.9 µM, O=C(Cn1ncc2c(=O)oc3ccccc3c21)NCCC1=CCCCC1 > 76.9 µM, Cc1cnc(-c2nnc(N(C)C(=O)c3cccnc3)s2)cn1 > 76.9 µM, CCOc1ccc(OCC)c(NC(=O)CSc2nc3c(c(=O)n(C)c(=O)n3C)n2CC)c1 > 76.9 µM, COc1ccc(-n2ccnc2SCC(=O)Nc2ccccc2)cc1 > 76.9 µM, Cc1cc(C)n(-c2nc(SCC(=O)NCC3CCCO3)c3c4c(sc3n2)CCCC4)n1 (stereo unspecified) > 76.9 µM, CN(C(=O)CSc1nnc(-c2ccco2)o1)C1CCCCC1 > 76.9 µM, COc1ccc(C)cc1NC(=O)CN1CCN(c2ccc(F)cc2)CC1 > 76.9 µM, CCn1c(=NC(=O)CSC(C)=O)sc2cc(F)ccc21 > 76.9 µM, Cn1nnc2cc(NC(=O)NCc3ccc4c(c3)OCO4)ccc21 > 76.9 µM, Nc1nnc(SCC(=O)NC2CCCCC2)n1-c1ccccc1 > 76.9 µM, COc1ccc(Br)cc1S(=O)(=O)n1ccnc1C > 76.9 µM, O=c1c2ccccc2nc2n1-c1ccccc1CCC2 > 76.9 µM, CCOc1cc2c(cc1OCC)C(C(=O)O)C(c1ccc(OC)c(O)c1)N(C)C2=O (stereo unspecified) > 76.9 µM, CCOC(=O)c1ccc(N2C(=O)c3n[nH]c(C)c3C2c2ccc(OC)c(OC)c2)cc1 (stereo unspecified) > 76.9 µM, CN=C1CC(C)(C)CC(=O)/C1=C(/O)CCC(=O)NC > 76.9 µM, O=C1CCC(=O)N1CCCCCc1nc(-c2ccccc2)no1 > 76.9 µM, CCC(C)NC(=O)C(Cc1ccccc1)NS(=O)(=O)c1cccc2nsnc12 (stereo unspecified) > 76.9 µM, Cc1ccc(C)c(-n2c(CNC(=O)c3ccco3)nnc2SCC(=O)Nc2nccs2)c1 > 76.9 µM, CCOC(=O)C1CCN(C(=O)COc2ccc(Br)cc2)CC1 > 76.9 µM, Cc1cc(C)c2nc(SCC(=O)N3CCCCC3)c(C#N)cc2c1 > 76.9 µM, COc1ccc(-c2cn3c(C)c(C(=O)NC(C)C)sc3n2)cc1 > 76.9 µM, CN1CCN(CC(=O)N(Cc2c(C#N)c3ccccc3n2C)c2ccccc2)CC1 > 76.9 µM, Cc1ccccc1-c1noc(N)c1C#N > 76.9 µM, O=C(O)c1cccc(S(=O)(=O)Nc2ccccc2Cl)c1 > 76.9 µM, FC(F)(F)c1nnc2ccc(N3CCOCC3)nn12 > 76.9 µM, CCOC(=O)CNC(=O)CSc1ncnc2c1cnn2-c1ccc(OC)cc1 > 76.9 µM, COc1ccc(OC)c2[nH]c(=O)c(CCNS(=O)(=O)c3ccccc3)cc12 > 76.9 µM, Cc1ccc(C)c(N2CCN(C(=O)Cn3cccc3)CC2)c1 > 76.9 µM, CCOC(=O)C1CN(S(=O)(=O)c2ccc(C)cc2)CCN1S(=O)(=O)c1ccc(C)cc1 (stereo unspecified) > 76.9 µM
